In all, about 370,000 compounds went through this assay and about 1,100 (0.3%) were called active. Inconclusive means that the source gave no clear call. Such entries were picked first, then a sample of the others. Calls follow the shape of the dose curve; as a rule, active = well fitted activation curve with a large enough effect; inconclusive = small, poorly fitted or top-dose-only effect; inactive = flat fitted curve, though single readings scatter. Potencies of inconclusive entries are doubtful fits and often do not repeat.
What follows are compounds tested against Relaxin receptor 1 (Homo sapiens) (UniProt Q9HBX9) (assay: qHTS Assay for Agonists of the Relaxin Receptor RXFP1). Settings: HEK293T-RXFP1 cAMP TR-FRET, 30 min; series mostly up to 57.5 µM.
Summary of the method: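 cAMP rise read by TR-FRET after 30 min, 37C compound exposure (up to 58 uM) in RXFP1-transfected HEK293 cells with Ro 20174 present. EC50 from Hill-equation fits, with 29 nM porcine relaxin as 100% and buffer as basal.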
Also: nearly all actives have a fitted effect of over 60% in size.
Potency is read from the fitted curve at half-maximal effect; tags tell the direction and shape of the fitted curve.

Chain of UniProt Q9HBX9 (Q9HBX9 whole entry, looked up): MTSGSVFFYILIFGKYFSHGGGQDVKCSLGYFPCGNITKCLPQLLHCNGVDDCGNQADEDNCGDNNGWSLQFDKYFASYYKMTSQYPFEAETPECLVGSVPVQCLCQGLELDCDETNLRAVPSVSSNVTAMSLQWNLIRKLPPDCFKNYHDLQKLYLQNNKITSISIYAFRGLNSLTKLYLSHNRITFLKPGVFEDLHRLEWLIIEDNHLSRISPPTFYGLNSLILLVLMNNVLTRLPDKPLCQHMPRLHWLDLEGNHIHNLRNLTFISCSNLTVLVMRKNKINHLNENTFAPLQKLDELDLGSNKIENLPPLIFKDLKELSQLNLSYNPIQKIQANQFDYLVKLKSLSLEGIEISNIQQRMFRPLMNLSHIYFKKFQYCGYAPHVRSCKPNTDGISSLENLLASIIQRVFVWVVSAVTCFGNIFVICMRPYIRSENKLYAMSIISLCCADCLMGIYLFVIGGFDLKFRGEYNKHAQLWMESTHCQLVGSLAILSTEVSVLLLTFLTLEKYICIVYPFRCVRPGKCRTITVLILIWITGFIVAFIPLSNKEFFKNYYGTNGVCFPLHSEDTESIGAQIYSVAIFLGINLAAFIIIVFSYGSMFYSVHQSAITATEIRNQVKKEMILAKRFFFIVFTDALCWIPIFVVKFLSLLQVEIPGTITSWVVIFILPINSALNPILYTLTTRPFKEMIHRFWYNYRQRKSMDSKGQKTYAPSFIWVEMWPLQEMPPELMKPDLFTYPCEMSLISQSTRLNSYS

SMILES	Potency
O=c1c2[nH]c3ccc(Br)cc3c2ncn1Cc1ccncc1	inconclusive: 7.08 µM [activator, single point]
CCCCC1=CC2=C(c3ccco3)C(=O)C(C)(OC(=O)c3ccc(OC)cc3)C(=O)C2=CN1Cc1ccc2c(c1)OCO2 (configuration not stated)	inconclusive: 7.94 µM [activator, partial curve]
CN(C)CCCNc1oc(/C=C/c2ccccc2)nc1C#N	inconclusive: 15.8 µM [activator, partial curve]
CCOc1ncnc2c1sc1nc(C)cc(C)c12	inconclusive: 31.6 µM [activator, single point]
O=C1c2ccccc2C(=O)N1c1nc2nccc(-c3ccccc3)n2n1	inconclusive: 31.6 µM [activator, single point]
O=C(CSc1nc2c(c(C(F)(F)F)n1)CCc1ccccc1-2)NCc1ccccc1	inconclusive: 31.6 µM [activator, single point]
CCOc1ccc(CC(=O)OCc2cc(=O)n3cc(Br)ccc3n2)cc1	inconclusive: 28.2 µM [activator, partial curve]
CN(C)S(=O)(=O)c1cccc(COC(=O)c2cccnc2Cl)c1	inconclusive: 25.1 µM [activator, partial curve]
O=C(CCCCCn1c(=S)[nH]c2cc3c(cc2c1=O)OCO3)N1CCN(C(=O)c2ccco2)CC1	inconclusive: 35.5 µM [activator, single point]
COc1nc(N)c(C#N)c(-c2ccc(N(C)CCC#N)cc2)c1C#N	inconclusive: 28.2 µM [activator, single point]
O=C(N/N=C/c1oc(O)c2ccccc12)c1ccccc1	inactive
CCc1nn(CC(=O)N2CCN(c3cccc(C)c3)C(C)C2)c(=O)c2cc3sccc3n12 (configuration not stated)	inactive
COc1ccc(OC)c(C2C(C(=O)c3ccc(C)o3)=C(O)C(=O)N2c2cc(C)on2)c1 (configuration not stated)	inconclusive: 25.1 µM [activator, partial curve]
CC(C)CNC(=S)N(Cc1ccco1)Cc1cc2cc3c(cc2[nH]c1=O)OCCO3	inactive
CC(N=Cc1cccc(O)c1O)c1ccccc1 (configuration not stated)	inactive
Cc1ccc(C)c(NC(=O)CSc2nc3nc(-c4cccs4)cc(C(F)(F)F)c3c(=O)[nH]2)c1	inconclusive: 14.1 µM [activator, partial curve]
CN(Cc1nc2ccccc2c(=O)[nH]1)Cc1nc2ccsc2c(=O)[nH]1	inconclusive: 20 µM [activator, partial curve]
Cn1c(/C=C/c2ccc(Cl)cc2)nc2ccccc2c1=O	inconclusive: 35.5 µM [activator, single point]
COc1cc(C(C)=O)ccc1OCC(=O)Nc1ccc(C)c(S(=O)(=O)N2CCCCCC2)c1	inactive
O=C(NCc1nnc2c(C(F)(F)F)cc(Cl)cn12)c1ccco1	inconclusive: 22.4 µM [activator, partial curve]
Cc1c(-c2nc(-c3ccc4c(c3)OCO4)no2)nnn1-c1ccc(Br)cc1F	inconclusive: 39.8 µM [activator, single point]

SMILES	Potency
CCN1CCN(C(=O)CSc2nc3c(c(=O)n(C)c(=O)n3C)n2C)CC1	inconclusive: 15.8 µM [activator, partial curve]
Cc1ccc(N(CCC#N)C(=O)CSc2nc3ccccc3c(=O)[nH]2)cc1	inactive
CCOC(=O)c1ccc(N2CCN(c3cccc(OC)c3)CC2)c(NC(=O)Nc2ccc(OCC)cc2)c1	inconclusive: 39.8 µM [activator, single point]
Cc1cc(C(=O)COC(=O)Cn2cnc3c2c(=O)n(C)c(=O)n3C)c(C)n1C	inconclusive: 15.8 µM [activator, partial curve]
Nc1c(C(=O)Nc2nc3ccccc3s2)sc2nc(-c3cccs3)ccc12	inconclusive: 14.1 µM [activator, partial curve]
O=C(Nc1nc2c(Br)cc(Br)cc2c(=O)s1)C1CCC1	inconclusive: 10 µM [activator, partial curve]
O=C(O)CCc1nn2c3ccccc3n(CC(=O)c3cccs3)c2nc1=O	inactive
CCc1ccccc1N(C)C(=O)c1cn(CC(C)C)c(=O)c2cc(OC)c(OC)cc12	inactive
Cc1ccc(N2C(=O)C3C4C=CC(CNC(=S)N5CCN(c6ccccn6)CC5)(O4)C3C2=O)cc1 (configuration not stated)	inconclusive: 39.8 µM [activator, single point]
O=C(O)CCCCCn1c(SCc2cc(=O)n3ccccc3n2)nc2ccsc2c1=O	inconclusive: 15.8 µM [activator, partial curve]
Cn1c(=O)c2ncn(CC(=O)N=Nc3c(O)[nH]c4ccccc34)c2n(C)c1=O	inconclusive: 15.8 µM [activator, partial curve]
CCOc1ccc(/C(O)=C2/C(=O)C(=O)N(CCOCCO)C2c2ccccc2)cc1 (configuration not stated)	inconclusive: 22.4 µM [activator, partial curve]
COc1cc(C2Nc3ccccc3C(=O)N2c2ccc(Cl)cc2)c(Cl)cc1OCC(=O)O (configuration not stated)	inactive
CCN1/C(=C/c2ccc3cc(C)ccc3[n+]2CC)Sc2cc(C)c(C)cc21	inactive
Cc1cccc(NC(=O)c2ccc3c(Cl)c4c(nc3c2)CCCC4)n1	inconclusive: 39.8 µM [activator, single point]
O=C(CCCn1c(=O)c2cccn2c2cccnc21)Nc1ccccc1C(F)(F)F	inconclusive: 35.5 µM [activator, single point]
O=c1c(N2CCc3ccccc3C2)csc2ccc(F)cc12	inactive
COCCN(Cc1cc2cc(C)ccc2n2nnnc12)C(=S)Nc1ccccc1C	inconclusive: 39.8 µM [activator, single point]
Cc1nnc(N2CCN(c3ccc(Cl)cc3)CC2)c2c1nnn2Cc1ccc(F)cc1	inconclusive: 35.5 µM [activator, single point]
Cc1cccc2c(C(=O)Nc3ccc(Br)cc3)cc(-c3ccccn3)nc12	inconclusive: 35.5 µM [activator, single point]
CCC(CC)c1nn2c(=O)cc(COc3ccc(NC(=O)c4ccccc4C)cc3)nc2s1	inconclusive: 25.1 µM [activator, single point]

From PubChem BioAssay AID2676 (National Center for Advancing Translational Sciences (NCATS), 2010)
